# In PubChem BioAssay AID488969 (Vanderbilt High Throughput Screening Facility, 2010):
# The full ranking holds about 110,000 compounds; the median of “z-score” is about -0.1, and the highest 2% start at about 2. This is one part of the list.
# Biological target: Metabotropic glutamate receptor 8 (Rattus norvegicus) (UniProt P70579)
# Experiment: mGluR8 Gi/Go-coupled signaling modulation – cell-based, rat, thallium flux, HTS, primary screen (AID 488969)
# Details: HEK293 rat mGluR8, GIRK (G protein-gated inwardly rectifying potassium channel) thallium flux, FluoZin2; at 10 µM; stronger effect = higher value; submaximal glutamate (EC20) added with thallium
# UniProt P70579, sequence (P70579 whole entry, looked up): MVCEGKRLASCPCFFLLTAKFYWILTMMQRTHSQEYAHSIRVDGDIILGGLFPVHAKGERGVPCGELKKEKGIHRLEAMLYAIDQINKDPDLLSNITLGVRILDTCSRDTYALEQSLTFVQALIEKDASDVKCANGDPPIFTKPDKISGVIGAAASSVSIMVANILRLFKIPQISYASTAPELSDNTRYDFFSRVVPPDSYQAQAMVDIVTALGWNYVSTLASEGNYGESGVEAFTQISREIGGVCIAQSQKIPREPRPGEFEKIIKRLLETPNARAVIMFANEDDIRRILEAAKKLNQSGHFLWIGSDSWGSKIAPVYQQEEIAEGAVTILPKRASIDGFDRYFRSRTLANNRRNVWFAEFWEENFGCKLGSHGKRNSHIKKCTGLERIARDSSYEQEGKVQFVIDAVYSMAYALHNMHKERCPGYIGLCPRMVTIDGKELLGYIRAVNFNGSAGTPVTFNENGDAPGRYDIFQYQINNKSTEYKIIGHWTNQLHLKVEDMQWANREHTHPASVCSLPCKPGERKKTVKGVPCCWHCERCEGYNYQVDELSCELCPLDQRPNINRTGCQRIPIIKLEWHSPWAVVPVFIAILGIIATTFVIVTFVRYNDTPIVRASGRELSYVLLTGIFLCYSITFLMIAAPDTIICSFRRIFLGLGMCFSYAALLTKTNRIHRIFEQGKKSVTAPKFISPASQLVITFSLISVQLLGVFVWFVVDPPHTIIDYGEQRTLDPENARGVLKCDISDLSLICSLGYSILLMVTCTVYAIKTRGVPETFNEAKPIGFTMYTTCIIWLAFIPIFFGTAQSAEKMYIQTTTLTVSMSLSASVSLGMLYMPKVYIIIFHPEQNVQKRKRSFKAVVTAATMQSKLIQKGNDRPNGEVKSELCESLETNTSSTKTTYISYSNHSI
row,SMILES,z-score
1,CN(C)N1C(N)=C(C#N)C(c2cccnc2)C2=C1CC(C)(C)CC2=O (configuration not stated),-0.105
2,CCN(CC)CCN1C(=O)C(=O)/C(=C(/O)c2ccc(OC(C)C)cc2)C1c1ccncc1 (configuration not stated),-0.15
3,O=C(c1ccc2ncsc2c1)N1CCN(c2ccc(O)cc2)CC1,-0.0382
4,CCOC(=O)C(C(=O)OCC)N(C#N)c1nc(OC)nc(N(C)C)n1,-0.465
5,Cc1ccccc1NC(=O)CN1C(=S)NC(C)(C)CC1C (configuration not stated),-0.286
6,CS(=O)(=O)c1nc(-c2cccs2)cc(C(F)(F)F)n1,-0.742
7,CCOC(=O)c1cc(NC(=O)c2cccnc2)cc(C(=O)OCC)c1,-0.81
8,N#C/C(=C/c1cn(-c2ccccc2)nc1-c1cccc(S(=O)(=O)N2CCOCC2)c1)C(=O)NCc1ccco1,-0.112
9,Cc1cc(C(=O)NNC(=S)NC(=O)/C=C/c2ccccc2Cl)n[nH]1,0.295
10,O=C(Nc1cccc(N=Cc2cc(Br)cc(Br)c2O)c1)c1ccco1,-2.03
11,COc1ccc(NC(=O)CCn2nnc(-c3ccc(C)cc3)n2)cc1OC,0.352
12,CCOC(=O)c1c(COC(=O)c2ccco2)nc2ccccc2[n+]1[O-],-0.168
13,Cc1nc(N2CCOCC2)c(C#N)c(C)c1Br,-0.151
14,CC(=O)NCCc1cc2cc(C)c(C)cc2[nH]c1=O,0.386
15,c1ccc(-n2cnc3cc(NCc4cccs4)ccc32)cc1,-0.219
16,CC(=O)Nc1ccc(OCC(=O)NC(C)C(C)C)cc1 (configuration not stated),-0.0668
17,C=CCOC(=O)CCC(=O)Nc1cc(OC)nc(OC)n1,-0.21
18,Cc1ccc(-n2ncc3c(NNC(=O)Cc4ccccc4)ncnc32)cc1,-0.145
19,CCCC(C(=O)c1ccccc1)n1cncn1 (configuration not stated),-0.313
20,O=C(O)CC1SC(=Nc2cccc(C(F)(F)F)c2)NC1=O (configuration not stated),0.907
21,Cc1ccc2nc(SCc3nnc(-c4ccccc4)o3)[nH]c2c1,-0.555
22,CC1CN(C(=O)/C=C/c2ccc3c(c2)OCO3)CC(C)O1 (configuration not stated),0.427
23,CCCN(CCC)C1=CC(=[N+]2CCCC2)CC(C)(C)C1,-0.0292

row,SMILES,z-score
1,Cc1cccc(NC(=O)c2ccc3ccccc3n2)c1C,-0.473
2,COC(=O)CCn1[nH]c(=O)c2ccccc2c1=O,-0.0173
3,OCC(CO)(CO)N=Cc1c(O)ccc2ccccc12,0.116
4,CC(C)CCN1C(=O)CCC1(C)C(=O)NC1CCCCCCC1 (configuration not stated),-0.383
5,O=C(Nc1nc2c(s1)CCc1ccccc1-2)c1ccco1,-0.46
6,COc1ccccc1CN1CC(C(=O)NCc2cccnc2)CC1=O (configuration not stated),-0.331
7,Cc1nn(C)c(Oc2ccc(Cl)cc2)c1C(=O)Nc1ccc(F)cc1F,-0.237
8,O=C(N/N=C/C1CC=CCC1)c1cc2ccccc2cc1O (configuration not stated),1.78
9,O=C(OCn1nnc2ccccc2c1=O)c1cccnc1,-0.0367
10,CSc1nnc(-c2ccc(Cl)cc2Cl)o1,-0.126
11,COc1ccc(NC(=O)CO/N=C2\CCCc3nonc32)cc1,0.0532
12,Cc1cc2c(ncn2C)c(NS(=O)(=O)c2cc(Cl)ccc2Cl)c1C,0.0901
13,O=C(NCc1ccco1)C1CCCN(S(=O)(=O)c2cnc[nH]2)C1 (configuration not stated),-0.0446
14,COc1ccccc1C(=O)ON=C1c2ccccc2-c2ccccc21,-0.416
15,COc1cccc(OCCSc2nnc3sc4ccccc4n23)c1,-1.13
16,Cc1ccc(-c2nnc(SCC(=O)CC(=O)Nc3ccccc3)n2C)cc1,-0.148
17,O=C(O)CCC(=O)N1CCc2cc(S(=O)(=O)N(CCc3ccccc3)Cc3ccccc3)ccc21,-2.33
18,CCCCCn1c(N)c(-c2nc3ccccc3s2)c2c([N+](=O)[O-])nn(C)c(=O)c21,0.0202
19,CCN(CC)CC(O)COc1ccccc1C(=O)CCc1ccccc1 (configuration not stated),0.394
20,CCCN(CCC)CC(O)CN(c1cc([N+](=O)[O-])ccc1OC)S(=O)(=O)c1ccccc1 (configuration not stated),-0.269
21,COc1nnc(OC)c2ccccc12,-0.152
22,CCCS(=O)(=O)N1CCN(C(=O)c2ccccc2F)CC1,0.0901
23,O=C(CSc1nnc(-c2ccccc2)c(-c2ccccc2)n1)N1CCc2ccccc21,-0.334

row,SMILES,z-score
1,CCCC(NS(=O)(=O)c1ccc(Br)cc1)C(=O)O (configuration not stated),0.0226
2,CN(C)c1ccc(/C=c2\sc3nc(-c4ccccc4)nn3c2=O)cc1,0.0153
3,O=C(NCc1ccco1)c1cccc(Nc2nc3ccc(Br)cc3[nH]2)c1,-0.536
4,CCOC(=O)N/N=C(/C)c1ccc([N+](=O)[O-])o1,0.141
5,CC(C)(C)N(C(=O)Cn1nnc(-c2ccc(F)cc2)n1)C(C(=O)NC1CCCC1)c1ccncc1 (configuration not stated),-0.139
6,N=c1n(CCN2CCCCC2)c2ccccc2n1CC(O)c1ccc(Cl)c(Cl)c1 (configuration not stated),0.264
7,CCOn1c(=O)c(-c2cc3ccccc3o2)[n+]([O-])c2ccccc21,-0.0501
8,COc1cc(C2CC(=O)n3c(nc4ccccc43)S2)cc(OC)c1OC (configuration not stated),-0.0551
9,Cc1cc(C)c2nc3nc(C)cc(C)c3c(N)c2c1,-0.702
10,CC1CCN(CCCNC(=O)c2ccc(CSCc3cccc(Cl)c3)o2)CC1,0.509
11,COc1ccc(CC(=O)NNC(=O)COc2ccc3ccccc3c2)cc1,0.022
12,O=C(NCCNC(=O)C(c1ccccc1)c1ccccc1)c1ccco1,0.54
13,Clc1ccc(-c2cn3cccnc3n2)cc1,-0.518
14,O=C(COC(=O)CCc1c[nH]c2ccccc12)NCc1ccc(Cl)cc1,-0.282
15,O=C(Cn1nnc(-c2ccccc2Cl)n1)N1CCN(S(=O)(=O)c2ccc(Cl)cc2)CC1,-0.336
16,CC(C)=C1C2CCC1C(C(=O)Nc1sc(C)c(-c3ccc(C(C)C)cc3)c1C(N)=O)C2C(=O)O (configuration not stated),-0.64
17,Cc1ccc(Nc2nc3nonc3nc2N(C)C)cc1,-0.0276
18,COC(=O)c1[nH]c2cc(OC)ccc2c1N,-0.114
19,CCOc1ccc(CC(=O)NNC(=S)NC2CCCCC2)cc1OCC,-0.0724
20,COc1ccc(-n2nc(C(=O)Nc3ccc(OC)c(OC)c3)c3c4ccccc4n(C)c3c2=O)cc1,-0.169
21,O=C(c1ccccc1)c1ccc(N2CCOCC2)c(F)c1,-0.143
22,CCc1nc(CNC(=O)c2cc(OC)c(OC)c(OC)c2)no1,0.181
23,CN1CCN(S(=O)(=O)c2ccc(NC(=S)NC(=O)c3ccccc3)cc2)CC1,0.103

row,SMILES,z-score
1,O=S(=O)(NCC1CCN(S(=O)(=O)c2ccccc2)CC1)c1ccccc1,-0.207
2,CC(C)CCn1c(C(C)O)nc2ccccc21 (configuration not stated),-0.257
3,CNc1nc(Oc2ccccc2C(=O)OC)nc(SC)n1,0.171
4,CC1=C(C(=O)OCc2ccccc2)C(c2ccc(N(C)C)cc2)NC(=O)N1 (configuration not stated),-1.51
5,CCOc1ccc(NC(=O)N2CC=C(n3c(=O)[nH]c4ccccc43)CC2)cc1,0.0976
6,CCn1c(=O)c2cc(C(=O)NCCN3CCOCC3)sc2c2ccccc21,-0.398
7,CCn1cc([N+](=O)[O-])c(C(=O)Nc2ccc(Cn3nc(C)cc3C)cc2)n1,-0.116
8,CC(C)=C1C(=O)NN(c2ccc(F)c(Cl)c2)C1=O,-0.33
9,Cc1oc2c(C)c(O)ccc2c(=O)c1-c1cnn(-c2ccccc2)c1,0.0462
10,O=C(O)CCCCCNC(=O)CCn1cnc2ccccc2c1=O,0.161
11,O=C(CSc1nc(-c2ccc(Cl)cc2)cs1)Nc1cccc([N+](=O)[O-])c1,-0.147
12,COc1ccc(S(=O)(=O)n2nc(-c3ccc(Cl)cc3)cc2N)cc1OC,-0.0966
13,O=S(=O)(c1ccc(F)cc1)N1CCN(c2ccccc2)CC1,-0.635
14,COC(=O)/C=C1/N/C(=N\c2nc(C)cc(C)n2)N(c2ccccc2)C1=O,-0.333
15,Cc1ccc(S(=O)(=O)Nc2cc(C(F)(F)F)ccc2N2CCOCC2)c(C)c1,-0.0267
16,COC(=O)c1ccc(NC(=O)CSc2nnc(-c3ccccc3)n2C)cc1,-0.0995
17,COc1ccc(C(C)NC(=O)c2ccccc2Cl)cc1OC (configuration not stated),-0.409
18,O=C(N1CCN(c2cccc(Cl)c2)CC1)C1(S(=O)(=O)c2ccc(Cl)cc2)CC1,0.0467
19,CCCOc1ccc(Br)cc1CSC(=N)N,1.51
20,O=C(CCN1C(=O)c2ccccc2C1=O)Nc1nc2ccccc2s1,-0.405
21,CC1CCN(CC(=O)N2CCCc3c2c(=O)oc2ccc(OCc4ccccc4)cc32)CC1,0.947
22,O=S1(=O)C=CC(Nc2cccc(Cl)c2)C1 (configuration not stated),0.506
23,O=C(CN1CCOCC1)Nc1ccccc1Sc1ccc(Cl)cc1,-0.195

row,SMILES,z-score
1,Cc1ccc(C(=O)N/C(=C/c2ccc(-c3cccc([N+](=O)[O-])c3)o2)C(=O)NC(C)(C)C)cc1,-0.296
2,C/C(CC(=O)Nc1ccc(OCc2ccccc2)cc1)=N\NC(=O)C(=O)Nc1ccc(C)c(Cl)c1,-0.132
3,CCOC(=O)C1[C@H]2C(=O)N(CCCOC)C[C@]23C=C[C@H]1O3 (some centres not stated),-0.0146
4,Nc1sccc1C(=O)c1ccc(Cl)cc1,-0.434
5,Cc1nc2ncnn2c(N2CCN(C(=O)c3cccc(F)c3)CC2)c1C,0.262
6,Cc1cccc(NC(=O)c2cc(NC(=O)C3CCCCC3C(=O)O)ccc2Cl)n1 (configuration not stated),-0.0619
7,Cc1ccc(SCC(=O)Nc2ccc(-c3nnc(-c4ccco4)o3)cc2)cc1,0.165
8,Cc1ccc(-n2nc3cc(C)c(N)cc3n2)cc1,0.00677
9,Fc1ccc(C(c2nnnn2C2CCCC2)N2CCN(Cc3ccncc3)CC2)cc1 (configuration not stated),-0.208
10,Cc1cc2n(n1)SC(Nc1cccc3ccccc13)N2 (configuration not stated),-0.209
11,COC(=O)c1ccccc1NC(=O)c1ccc(COc2ccccc2)o1,-0.151
12,CC(/C=N/Nc1nnc2c(n1)[nH]c1ccccc12)=C\c1ccco1,-0.207
13,CC(C)NC(=O)C(=O)N/N=C/c1ccco1,-0.0707
14,CCN(CC)c1ccc(NC(=O)COc2ccccc2C)cc1S(=O)(=O)Nc1ccccc1OC,0.543
15,CCOc1ccc(C(=O)NC2CCN(C(=O)NCc3ccccc3)CC2)cc1,-0.171
16,CCCc1nc2ccccc2c(=O)n1N,-0.257
17,CN(C)S(=O)(=O)N(CC(=O)Nc1ccc(F)c(F)c1)c1ccccc1,-0.415
18,CC1(C)NC(=O)N(CC(O)CNC23CC4CC(CC(C4)C2)C3)C1=O (configuration not stated),0.426
19,O=c1[nH]cnc2sc3c(c12)CCN(Cc1ccccc1)C3,0.233
20,CCCCCSc1nc2c(c(=O)[nH]c(=O)n2C)n1CC,-0.511
